Measured values from the supplement of paper PMC3334620.
Over roughly 33,000 sequences, “E-score (-0.5 to 0.5)” has its median near -0.054; the highest 2% begin near 0.39. The list shows a part of the results.

Target: Ylr278c (UniProt Q05854)
Assay: PBM E-score (8-mer binding enrichment) (E-score (-0.5 to 0.5)); higher = stronger / more preferred TF binding; most listed sequences are background and not binding sites
Settings: protein concentration: 200 nM; construct: GST-DNA-binding domain
Method in brief: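 For each ungapped eight-base word taken together with its reverse complement, the Universal PBM Analysis Suite assigned an E-score. Binding data came from GST-tagged yeast transcription factors, applied at about 100-200 nM, on universal all-10-mer Agilent arrays made double-stranded by primer extension. Fluorescent anti-GST marked bound protein, and scans were normalised with masliner.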

Row | Sequence | PBM E-score
1 | AACGGAGC | 0.309
2 | GGCTGCCA | -0.0671
3 | CCCCGTAC | -0.0447
4 | CACACGTC | -0.159
5 | AAGTCACT | -0.195
6 | ACTCCCGG | 0.396
7 | CAGATGTC | 0.0223
8 | GATGGAGA | 0.0634
9 | CCTCCCTA | -0.209
10 | CTCAGCTC | 0.0136
11 | ATGACAGC | -0.318
12 | GAGGAAGC | -0.0167
13 | CTCTACCC | -0.264
14 | ACGGGGCC | 0.112
15 | CTTTAAGC | -0.0581
16 | CTCGATCC | -0.0661
17 | CGACCAAC | -0.0399
18 | AATACTAG | -0.0593
19 | AAGATCTC | -0.116
20 | GGGAACAC | 0.0932
21 | ACCCATGC | -0.175
22 | TCATCAGA | -0.192
23 | AGACACCG | 0.124
24 | GGTGGTAC | 0.103
25 | TATTTCGA | 0.0125

Row | Sequence | PBM E-score
26 | AACCAACG | -0.0842
27 | ACGCAACT | 0.0554
28 | CTTGGATC | -0.0577
29 | CGGTGGAA | 0.168
30 | GAAGATAA | 0.0918
31 | CAAGTCAG | -0.0983
32 | AACTTAAG | -0.185
33 | AGGGAAAG | -0.163
34 | ATGGAGTC | 0.0654
35 | GAACTGCC | 0.0147
36 | GACCGATA | 0.132
37 | ATCTGCGA | -0.108
38 | CCCGATCG | 0.259
39 | GATCCGCC | 0.276
40 | ACTGTGGA | -0.24
41 | AGGGAGGA | -0.27
42 | ATTCCCTG | -0.0591
43 | CGCCTGAC | 0.135
44 | GTCGAGCA | -0.33
45 | GTAGCTAC | -0.231
46 | CCGCCTAG | 0.0948
47 | AATGGTCC | 0.0689
48 | AGCAGTAG | -0.244
49 | AAGCGCAA | 0.0312
50 | AGACCAGA | -0.128

Row | Sequence | PBM E-score
51 | ATTGCTAA | -0.202
52 | CACATTAG | -0.266
53 | CGGAACTA | 0.422
54 | AGACGACT | -0.153
55 | GGATATCC | 0.235
56 | GAATATCC | 0.236
57 | CGATACCA | -0.0833
58 | ACATTCTA | -0.269
59 | AACCGTGC | -0.19
60 | CCAATAGA | -0.2
61 | CGGTAGCC | 0.0983
62 | CTGACTAA | 0.101
63 | GGGTATAA | 0.0155
64 | CTGTATCA | -0.256
65 | GAAGAATC | 0.222
66 | CACTCTGA | -0.0892
67 | CAGTTCGA | -0.16
68 | ATTGTTGG | 0.0754
69 | AGTGGGAA | 0.0353
70 | GACTACCA | -0.055
71 | CCGGGTAA | 0.341
72 | GAGGCTGC | -0.169
73 | CGAGCCCC | 0.096
74 | AGCACTAG | -0.192
75 | GTTCATCA | -0.0953

Row | Sequence | PBM E-score
76 | CTGATATA | -0.141
77 | GCAGATAC | -0.0211
78 | CTGCGAAA | -0.0633
79 | CGATCACC | 0.102
80 | ACGACTCT | -0.237
81 | AGCTGACT | -0.102
82 | CTGTAGTA | -0.0617
83 | CATCTGGA | 0.0399
84 | CCGGCGTA | 0.387
85 | GATTTTTA | 0.13
86 | CCTTCGAG | -0.0791
87 | AACGTGCA | -0.155
88 | GATAGCCC | -0.034
89 | AACGTGGG | -0.154
90 | CCTCTCGA | -0.193
91 | ATGCTCTG | -0.211
92 | AGCATCCG | 0.164
93 | CAATGTTC | -0.0551
94 | GGATTGTA | 0.0466
95 | ACGGCGCC | 0.184
96 | CAACCCTG | -0.0969
97 | ACCTACGT | -0.063
98 | GGGACTTA | -0.0692
99 | CTACGAAG | -0.367
100 | ATCGCACA | -0.213

Row | Sequence | PBM E-score
101 | GCGCATGA | -0.13
102 | CATGCACA | -0.24
103 | ACCCTATC | -0.0194
104 | TCTGAGCA | -0.261
105 | GAGACGTA | -0.0949
106 | ATTTGGAG | -0.144
107 | ACATTAAA | -0.0965
108 | CCTGTATA | -0.112
109 | CGTACTCC | 0.285
110 | CCTATTTC | 0.036
111 | ACCGATCG | 0.26
112 | AGTCATAT | -0.0638
113 | CGACAGGA | 0.144
114 | AAGCTTAG | -0.033
115 | ACACTACC | -0.0351
116 | TACCTCCA | -0.221
117 | AGTGCTAA | 0.0605
118 | GTCAGCCA | -0.195
119 | AGGGATTG | -0.134
120 | GCGCGGTA | 0.227
121 | ATATAGGC | 0.0793
122 | ACCGAAAA | 0.0832
123 | CAACAAGC | -0.0654
124 | AACCTTAA | 0.0629
125 | GGGTGCTA | -0.0146

Row | Sequence | PBM E-score
126 | GGGGCTAA | -0.0146
127 | TGATTTAA | 0.118
128 | AAAGTCTC | -0.222
129 | GCAATTGC | -0.0388
130 | ACAGCGAG | -0.095
131 | CCACGTGA | -0.198
132 | CGTTAGAA | -0.0373
133 | ACTTCCTA | -0.0284
134 | ACACTAAA | -0.0562
135 | AGCGCGTC | -0.0272
136 | GCAGCACC | -0.0639
137 | CCATGTCC | 0.123
138 | CTGGGTCC | 0.0219
139 | AATGTCGT | -0.163
140 | GGCCGCAA | 0.0796
141 | CGAACGTA | -0.156
142 | ACGGACCC | 0.187
143 | AGAGACAC | -0.152
144 | ACGTAAAT | 0.0497
145 | GCGAACCC | 0.208
146 | AGAAAACT | -0.187
147 | AGCCCGGA | 0.448
148 | CATATTGA | -0.25
149 | CAAACGCA | -0.214
150 | CATTGGAG | 0.0128

Row | Sequence | PBM E-score
151 | CGGTGCTA | 0.214
152 | CATCTAAC | -0.0951
153 | AATGACTC | -0.162
154 | GTAACTAA | 0.0279
155 | CGGGTGCA | 0.12
156 | CAGTGGGC | -0.12
157 | CAATGGCC | 0.0331
158 | GACATCAC | -0.0122
159 | CCCCTGCA | -0.174
160 | ATACATTC | -0.165
161 | CTAGGCAA | -0.0858
162 | GACTTGCC | -0.0798
163 | AATGACAG | -0.308
164 | ACAAGAGA | -0.0766
165 | CTCTGTCC | -0.0172
166 | CATCACGA | -0.293
167 | ACATGAGT | -0.283
168 | ACTTGAGC | -0.334
169 | GATTTTAC | 0.106
170 | AATTCCTC | 0.0437
171 | CCTATATC | -0.0734
172 | GTCGTGGA | -0.0646
